Among the data in the RNAGym collection of RNA variant scans (doi:10.1093/nar/gkz1192) are self-cleavage values, retold here.

The chains are these.
B1: CPEB3 Ribozyme (parent)
chain: UAACAGGGGGCCACAGCAGAAGCGUUCACGUCGCAGCCCCUGUCAGAUUCUGGUGAAUCUGCGAAUUCUGCUGUAUAUCUC

The source gives no read counts; variants with many changes may rest on few reads.

In this data set the parent is B1. Put plainly: self-cleavage, relative activity (ratio to wild type); higher = more cleavage; in vitro, sequencing. In short, it runs like this: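 For each CPEB3 ribozyme variant, relative activity is its cleaved/total read fraction divided by the unmutated ribozyme's. Barcoded error-prone PCR libraries were transcribed by T7 RNA polymerase (5 hours, 37°C) and held in DNase I for 15 min before an EDTA stop, with cleavage occurring throughout. Template-switching reverse transcription and Illumina sequencing were used to read the RNAs. A 5-read minimum applied, and results are the mean of three batches.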
Regarding UAACAAGGGGCCACAGCAGAAGCGCUCACGUCGCAGCCCCUGUCAGAUUCUGGUGAAUCUGCGAGUUCUGCUGUAUAUCAC [G6A U25C A65G U80A], the self-cleavage was 0.2.

For the variant UAACAAGGGGCUACAGCAGAGGCGUUCACGUCGCAGCCCCUGCCAGAUUCUGGUGAAUCUGCGGAUUCUGCUGUAAACCUC [G6A C12U A21G U43C A64G U76A U78C], the self-cleavage was 0.07.

Take UAACAAGGGGGCACGGCAGAAGCGUUCACGUCGCAGCCCCUGUCAGAUUCCGGUGAAUCUGCGAAUUCUGCUGUAUAUCUC [G6A C11G A15G U51C]: the self-cleavage came to 0.23.

In the case of UAACAAGGGGCCACAGCAGAAGCGUUCUCGUCGCAGCCCCUGUCAGAUCCUGGUGAAUCUGCGGAUUCUGCUGUAUAUCUC [G6A A28U U49C A64G], the self-cleavage worked out at 0.07.

For UAACAAGGGGCCACAGCAGAAGCGUUCACGUCGCAGCCCAUGUCAGAUUCUGGUGAAUCUGCGAAUUCUGCCGAAUAUCUC [G6A C40A U72C U74A], the self-cleavage came to 0.16.

In the case of UAACAAGGGGUCACAGCAGAAGCGUUCACGUCGCAGCCCCUGUCGGAUCCUGGUGAAUCUGCGCAUUCUGCUGUAUAUCUC [G6A C11U A45G U49C A64C], the self-cleavage was 0.06.

Turning to UAACAAGGGGCCACAGCAGAAGCGUUCUCGUCGCAGCCCCUGUCAGAUUCUGGUGAAUCUGCGUAUUCUGCUGUAUAUCCC [G6A A28U A64U U80C], the self-cleavage turned out to be 0.07.

With UAACAAGGGGCCACAGCAGAAGCGCUCACGUCGCAGCCCCUGUCAGAUUCUGGCGAAUCUGCGAAUUCUGCCGUAUAUCUC [G6A U25C U54C U72C], the self-cleavage turned out to be 0.25.

As to UAACAAGGGGCCACAGCAGAAGCGCUAACGUCGCAGCCCCUGUCAGAUACUGGUGAAUCUGCGAACCCUGCCGUAUAUCUC [G6A U25C C27A U49A U66C U67C U72C], the self-cleavage was determined as 0.04.

UAACAAGGGGCCACAGCAGUAGCGUUCACGUCGCAGCCCCUGACAGAUUCUGGUGAAUCUGCGAAUUCUGCUGUAUAUCUC [G6A A20U U43A]: the self-cleavage was 0.35.

Turning to UAACAAGGGACCACAGCAGAGGCGUUCACGUCGCAGCCCCUGUCAGAUUCUGGUGAAUCUGCGAAUUCCGCCGUAUAUCUC [G6A G10A A21G U69C U72C], the self-cleavage amounted to 0.06.

Regarding UAACAAGGGGCCACAGCAGAAGCGCUCACGUCGCUGCCCCUGCCAGAUCCUGGUGAAUCUGCGAAUUCUGCUGUAUAUCUC [G6A U25C A35U U43C U49C], the self-cleavage turned out to be 0.27.

Turning to UAACAAGGGAGCACAGCAGAAGCGUUCACGUCGGAGCCCCUGUCAGAUUCUGGUGAAUCUGCGAAUUCUGCUGUAUAUCUC [G6A G10A C11G C34G], the self-cleavage turned out to be 0.31.

Consider UAACAAGGGGCCACAGCAGGAGCGCUCACGUCGCAGCCCCUGUCAGAUUCUGGUGAAUCUGCGAAUUCUGCUGUAUAUCCC [G6A A20G U25C U80C], for which the self-cleavage turned out to be 0.09.

For the variant UAACAAGGGGCCACAACAGAGGCGUUCACGUCGAAGCCCCUGUCAGAUUCUGGUGAAUCUGCGAAUUCAGCCGUAUAUCUC [G6A G16A A21G C34A U69A U72C], the self-cleavage worked out at 0.06.

For the variant UAACAAGGGGUCACAGCAGAAGCGCUCACGUCGCAGCCCCUGUCAGAUUCUGGUGAAUCUGCGGAUUCUGCCGUAUACCUC [G6A C11U U25C A64G U72C U78C], the self-cleavage was determined as 0.05.

Turning to UAACAAGGGGCCACAGCAGAAGCGUACACGUCGCAGCCCCUGUCAGAUUCUGGCGAAUCUGCGAAUUCUGCUGUAUAUCUC [G6A U26A U54C], the self-cleavage was found to be 0.4.

For UAACAAGGGGCCACAGCAGAAGCGUUCACGUCGCAGUCCCUGUCAGAUUCUGGUGAAUCUGCGAAUUCUGCUGCAUACCUC [G6A C37U U74C U78C], the self-cleavage came out at 0.17.

For UAACAAGGGGCAACAGCGGAAGCGUUGGCGUCGCAGCCCCUGUCAGCUUCUGGCGAAUCUGCGAAUUCUGCUGUAUAUCUC [G6A C12A A18G C27G A28G A47C U54C], the self-cleavage was found to be 0.17.

Regarding UAACAAGGGGCCACAGCAGAAGCGUUCACGUCGCUGCCCCUGUCAGAUUCUGGUGAAUCUGCGGAUUCUGCUGUAAAUCUC [G6A A35U A64G U76A], the self-cleavage worked out at 0.1.

On to UAACAAGGGGCCACAGCAGAAGCGCUCACGUCGCAGCCCCUGUCAGAUUCUGGUGGAUCCGCGAAUUCUGCUGUAUAUCUC [G6A U25C A56G U60C], for which the self-cleavage was 0.3.

As for UAACAAGGGGCAACAGCAGAGACGUUCACGUCGCAGCCCCUGUCAGAUUCUGGCGAAUCUGCGAAUUCUGCUGUAUAUCUC [G6A C12A A21G G22A U54C], the self-cleavage worked out at 0.07.

UAACAAGUGGCCACAGCAGAAGCGUUCACGUCGCAGCCCCUGUCAGAUUCUGGUGAAUCUGCGAAUUCCGCUGUAUAUCUC [G6A G8U U69C]: the self-cleavage was 0.16.

For UAACAAGGGGCCACAGCAGAAGCGUUCACGUCGCUGCCACUGCCAGAUUCUGGUGAAACUGCGAAUUCGGCUGUAUAUCUC [G6A A35U C39A U43C U58A U69G], the self-cleavage is 0.04.

Regarding UAACAAGGGGCAACAGCAGAAGCGUUCACGCCGCAGCCCCUGUCAGAUUCUGGUGAAUCUGCGAAUACUGCUGUAUAUCUC [G6A C12A U31C U67A], the self-cleavage was 0.07.

UAACAAGGGGCCACAGCAGUAGCGCUCACGUCGCAGCCCCUGUCAGAUUCUGGUGAACCUGCGAAUUCUCCUGUAUAUCUC [G6A A20U U25C U58C G70C]: the self-cleavage worked out at 0.12.

Take UAACAAGGGGGCACAGCAGAAGCGUUCACGUCGCAGCCCCUGUCAGAUUCUGGCGAAUCUGCGAAUUCUGCUGUAUAUCUC [G6A C11G U54C]: the self-cleavage worked out at 1.23.

UAACAAGGGACCACAGCAGAAGCGUUCGCGUCGCAGCCCCUGUCAGAUCCUGGUGAAUCUGCGAAUUCAGCUGUAUAUCCC [G6A G10A A28G U49C U69A U80C]: the self-cleavage worked out at 0.05.

Consider UAACAAGGGACCACAGCUGAAGCGUUCACGUCGCAGCCCCUGUCAGAUUCUGGUGAAUCUGCAAAUUCUGCAGUAUAUCUC [G6A G10A A18U G63A U72A], for which the self-cleavage turned out to be 0.05.

With UAACAAGGGGCCACAGCAGAAGCGUUCACGUCGCAGUCCCUGUCAGAUCCUGUUGAAUCUGCGAAUUCUGCUGUAUAUCCC [G6A C37U U49C G53U U80C], the self-cleavage stood at 0.19.

On to UAACAAGGGGCCACAGCAGAAGCGUUCACGUCGCAGCCCCUGUCAGAUUCUGGUGAAUUUGCGAAUUCUGCUGUUUAUCUC [G6A C59U A75U], for which the self-cleavage amounted to 0.08.

Take UAACAAGGGGCCACAGCAGAAGCGCUCACGUCGCAGCCCCUGUCAGAUUCUGGCGAAUCUGCGAAUUCUGCUGUAUAUCUC [G6A U25C U54C]: the self-cleavage was 0.28.

Consider UAACAAGGGGCCACAGCAGAAGCGUACACGUCGCAGCCCCUGUCAGAUUCUGGAGAAUCUGCCAAUUCGGCUGUAUAACUC [G6A U26A U54A G63C U69G U78A], for which the self-cleavage amounted to 0.02.

With UAACAAGGGGCCACAGCAGAGGCGUUCACAUCGCAGCCCCUGUCAGAUUCUGGUGAGUCUGCGAACUCUGCUGUAUAUCUC [G6A A21G G30A A57G U66C], the self-cleavage was 0.13.
